Assay results taken from the supplement of paper PMC10369915.
The list shows a part of the results. No stated cut-off is given here; in the data, active = 3.2 or more and inactive = the rest. Most of these values are background signal.

Tests used:
Assay in all cases: enrichment score (SH2-bound / input frequency) (ratio); bacterial display of known human phosphotyrosine sites (pTyr-Var adds point mutants) read by sequencing; higher = stronger binding; tyrosines were phosphorylated by kinases first
Settings in all cases: peptide library: Human pTyr
SHP2 C-SH2 domain E139D = molecular target: SHP2 C-SH2 domain E139D
[1] = molecular target: SHP2 C-SH2 domain wild-type
SHP2 N-SH2 domain L43F = molecular target: SHP2 N-SH2 domain L43F
SHP2 N-SH2 domain T42A = molecular target: SHP2 N-SH2 domain T42A
SHP2 N-SH2 domain T52S = molecular target: SHP2 N-SH2 domain T52S
[2] = molecular target: SHP2 N-SH2 domain wild-type

Measured: enrichment score
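Further: displayed peptides selected on beads carrying the immobilized SH2 domain, with library peptides lacking any tyrosine serving as negative controls.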

EDNVDEQYQEEAEEE [GOLI4_HUMAN_613]
inactive: SHP2 C-SH2 domain E139D 1.28 | [1] 1.12 | SHP2 N-SH2 domain L43F 1.15 | SHP2 N-SH2 domain T42A 1.13 | SHP2 N-SH2 domain T52S 1.42 | [2] 1.45

FPLFTAVYQICYESR [GPD1L_HUMAN_328]
inactive: SHP2 C-SH2 domain E139D 1.77 | [1] 2 | SHP2 N-SH2 domain L43F 2.02 | SHP2 N-SH2 domain T42A 1.88 | SHP2 N-SH2 domain T52S 2.32 | [2] 2.28

FPLFMAVYKVCAEGQ [GPDA_HUMAN_326_YA]
inactive: SHP2 C-SH2 domain E139D 2.29 | [1] 2.24 | SHP2 N-SH2 domain L43F 2.07 | SHP2 N-SH2 domain T42A 1.87 | SHP2 N-SH2 domain T52S 2.29 | [2] 2.88

TARKFLYYEMGYKSR [GPDM_HUMAN_601]
inactive: SHP2 N-SH2 domain T52S 2.97
active: SHP2 C-SH2 domain E139D 3.46 | [1] 3.53 | SHP2 N-SH2 domain L43F 3.37 | SHP2 N-SH2 domain T42A 3.5 | [2] 3.68

ELGSQEGYVPKNFID [GRAP2_HUMAN_45]
inactive: SHP2 C-SH2 domain E139D 0.512 | [1] 0.485 | SHP2 N-SH2 domain L43F 0.591 | SHP2 N-SH2 domain T42A 0.442 | SHP2 N-SH2 domain T52S 0.441 | [2] 0.469

CLPEHNPYRPSASAD [AKAP8_HUMAN_146_YA]
inactive: SHP2 C-SH2 domain E139D 1.2 | [1] 1.05 | SHP2 N-SH2 domain L43F 0.977 | SHP2 N-SH2 domain T42A 1.1 | SHP2 N-SH2 domain T52S 0.93 | [2] 1.29

NASLESLYSACSMQS [GRB10_HUMAN_67]
inactive: SHP2 C-SH2 domain E139D 0.856 | [1] 0.647 | SHP2 N-SH2 domain L43F 0.694 | SHP2 N-SH2 domain T42A 0.784 | SHP2 N-SH2 domain T52S 0.728 | [2] 0.72

DGFIPKNYIEMKPHP [GRB2_HUMAN_52]
inactive: SHP2 C-SH2 domain E139D 0.811 | [1] 0.512 | SHP2 N-SH2 domain L43F 1.26 | SHP2 N-SH2 domain T42A 0.645 | SHP2 N-SH2 domain T52S 0.566 | [2] 0.856

FRKNFAKYELFKSSP [GRB7_HUMAN_188]
inactive: SHP2 C-SH2 domain E139D 2.18 | [1] 1.66 | SHP2 N-SH2 domain L43F 1.75 | SHP2 N-SH2 domain T42A 1.4 | SHP2 N-SH2 domain T52S 1.81 | [2] 2.1

AAFRLFKYGVQLYKN [GRB7_HUMAN_338]
inactive: SHP2 C-SH2 domain E139D 1.57 | [1] 1.39 | SHP2 N-SH2 domain L43F 1.44 | SHP2 N-SH2 domain T42A 1.31 | SHP2 N-SH2 domain T52S 1.41 | [2] 1.72

AAFRLFKYGVQLAKN [GRB7_HUMAN_338_YA]
inactive: SHP2 C-SH2 domain E139D 1.56 | [1] 1.35 | SHP2 N-SH2 domain L43F 1.28 | SHP2 N-SH2 domain T42A 1.13 | SHP2 N-SH2 domain T52S 1.95 | [2] 2.15

YKEGYNVYGIESVKI [GRIA2_HUMAN_876]
inactive: SHP2 C-SH2 domain E139D 0.766 | [1] 0.585 | SHP2 N-SH2 domain L43F 0.881 | SHP2 N-SH2 domain T42A 0.514 | SHP2 N-SH2 domain T52S 0.612 | [2] 1.38

AKEGANVYGIESVKI [GRIA2_HUMAN_876_YA]
inactive: SHP2 C-SH2 domain E139D 0.586 | [1] 0.666 | SHP2 N-SH2 domain L43F 0.659 | SHP2 N-SH2 domain T42A 0.582 | SHP2 N-SH2 domain T52S 0.723 | [2] 0.549

YREGYNVYGTESVKI [GRIA3_HUMAN_887]
inactive: SHP2 C-SH2 domain E139D 0.78 | [1] 0.552 | SHP2 N-SH2 domain L43F 0.823 | SHP2 N-SH2 domain T42A 0.566 | SHP2 N-SH2 domain T52S 0.532 | [2] 0.658

AREGANVYGTESVKI [GRIA3_HUMAN_887_YA]
inactive: SHP2 C-SH2 domain E139D 0.736 | [1] 0.648 | SHP2 N-SH2 domain L43F 0.642 | SHP2 N-SH2 domain T42A 0.641 | SHP2 N-SH2 domain T52S 0.662 | [2] 0.859

CSEVERTYLKTKSSS [GRIN2A_HUMAN_1105]
inactive: SHP2 C-SH2 domain E139D 1.31 | [1] 0.908 | SHP2 N-SH2 domain L43F 1.22 | SHP2 N-SH2 domain T42A 1.07 | SHP2 N-SH2 domain T52S 1.08 | [2] 1.2

SSPRDKIYTIDGEKE [GRIN2A_HUMAN_1118]
inactive: SHP2 C-SH2 domain E139D 1.13 | [1] 0.697 | SHP2 N-SH2 domain L43F 1.05 | SHP2 N-SH2 domain T42A 0.905 | SHP2 N-SH2 domain T52S 0.867 | [2] 0.847

GLSNNDQYKLASKHF [GRIN2A_HUMAN_1184_YA]
inactive: SHP2 C-SH2 domain E139D 0.875 | [1] 0.768 | SHP2 N-SH2 domain L43F 0.766 | SHP2 N-SH2 domain T42A 0.838 | SHP2 N-SH2 domain T52S 0.828 | [2] 0.987

NNDQAKLYSKHFTLK [GRIN2A_HUMAN_1187_YA]
inactive: SHP2 C-SH2 domain E139D 1.07 | [1] 0.859 | SHP2 N-SH2 domain L43F 1.07 | SHP2 N-SH2 domain T42A 0.933 | SHP2 N-SH2 domain T52S 0.973 | [2] 0.816

SRGHNDVYISEHVMP [GRIN2A_HUMAN_1423]
inactive: SHP2 C-SH2 domain E139D 0.684 | [1] 0.647 | SHP2 N-SH2 domain L43F 0.816 | SHP2 N-SH2 domain T42A 0.562 | SHP2 N-SH2 domain T52S 0.682 | [2] 0.659

SSTGFQPYCLVVRKP [GSDMD_HUMAN_37]
inactive: SHP2 C-SH2 domain E139D 0.99 | [1] 0.653 | SHP2 N-SH2 domain L43F 1.17 | SHP2 N-SH2 domain T42A 1.14 | SHP2 N-SH2 domain T52S 1 | [2] 0.834

AFLASPEYVNLPING [GSTP1_HUMAN_199]
inactive: SHP2 C-SH2 domain E139D 1.29 | [1] 1.2 | SHP2 N-SH2 domain L43F 1.23 | SHP2 N-SH2 domain T42A 1.3 | SHP2 N-SH2 domain T52S 1.13 | [2] 1.68

GGGGMPPYTVVYFPV [GSTP1_HUMAN_4]
active: [1] 4.07 | SHP2 N-SH2 domain L43F 15 | SHP2 N-SH2 domain T42A 16.2 | SHP2 N-SH2 domain T52S 9.3
inactive: SHP2 C-SH2 domain E139D 1.98 | [2] 2.53

MPPYTVVYFPVRGRC [GSTP1_HUMAN_8]
inactive: SHP2 C-SH2 domain E139D 0.745 | [1] 0.633 | SHP2 N-SH2 domain L43F 1.62 | SHP2 N-SH2 domain T42A 0.844 | SHP2 N-SH2 domain T52S 0.732 | [2] 0.775

EESEDPDYAQANIQA [GTF2I_HUMAN_248_YA]
inactive: SHP2 C-SH2 domain E139D 1.49 | [1] 1.13 | SHP2 N-SH2 domain L43F 1.34 | SHP2 N-SH2 domain T42A 1.3 | SHP2 N-SH2 domain T52S 1.31 | [2] 1.42

ESEDPDYYQYNIQAG [GTF2I_HUMAN_249]
inactive: SHP2 C-SH2 domain E139D 1.36 | [1] 1.03 | SHP2 N-SH2 domain L43F 1.36 | SHP2 N-SH2 domain T42A 1.2 | SHP2 N-SH2 domain T52S 0.947 | [2] 1.45

ESEDPDAYQANIQAG [GTF2I_HUMAN_249_YA]
inactive: SHP2 C-SH2 domain E139D 1.05 | [1] 0.792 | SHP2 N-SH2 domain L43F 0.821 | SHP2 N-SH2 domain T42A 0.876 | SHP2 N-SH2 domain T52S 1.01 | [2] 1.1

VTIEDDDYSPPSKRP [GTF2I_HUMAN_318]
inactive: SHP2 C-SH2 domain E139D 0.657 | [1] 0.594 | SHP2 N-SH2 domain L43F 0.856 | SHP2 N-SH2 domain T42A 0.809 | SHP2 N-SH2 domain T52S 0.613 | [2] 0.501

ATQASQEYGGGGGGG [H2AX_HUMAN_143]
inactive: SHP2 C-SH2 domain E139D 0.907 | [1] 0.518 | SHP2 N-SH2 domain L43F 0.823 | SHP2 N-SH2 domain T42A 0.552 | SHP2 N-SH2 domain T52S 0.736 | [2] 0.682

CGVKPHRYRPGTVAL [H3C_HUMAN_41]
inactive: SHP2 C-SH2 domain E139D 1.33 | [1] 1 | SHP2 N-SH2 domain L43F 0.981 | SHP2 N-SH2 domain T42A 1.13 | SHP2 N-SH2 domain T52S 1.1 | [2] 1.13

SVTTGATYSYGPASW [AKAP8_HUMAN_51]
inactive: SHP2 C-SH2 domain E139D 0.854 | [1] 0.865 | SHP2 N-SH2 domain L43F 0.754 | SHP2 N-SH2 domain T42A 0.792 | SHP2 N-SH2 domain T52S 0.787 | [2] 0.789

KRISGLIYEETRGVL [H4_HUMAN_52]
inactive: SHP2 C-SH2 domain E139D 0.812 | [1] 0.731 | SHP2 N-SH2 domain L43F 0.964 | SHP2 N-SH2 domain T42A 0.794 | SHP2 N-SH2 domain T52S 0.767 | [2] 0.892

VTAMDVVYALKRQGR [H4_HUMAN_89]
inactive: SHP2 C-SH2 domain E139D 0.694 | [1] 0.558 | SHP2 N-SH2 domain L43F 0.657 | SHP2 N-SH2 domain T42A 0.629 | SHP2 N-SH2 domain T52S 0.584 | [2] 0.694

IRSEENIYTIEENVA [HAVR2_HUMAN_265_YA]
inactive: SHP2 C-SH2 domain E139D 1.35 | [1] 1.75 | SHP2 N-SH2 domain L43F 1.43 | SHP2 N-SH2 domain T42A 1.12 | SHP2 N-SH2 domain T52S 1.64 | [2] 1.23

TLDNGGFYISPRSTF [HCK_HUMAN_209]
inactive: SHP2 C-SH2 domain E139D 0.748 | [1] 0.604 | SHP2 N-SH2 domain L43F 0.707 | SHP2 N-SH2 domain T42A 0.677 | SHP2 N-SH2 domain T52S 0.712 | [2] 0.662

YTATESQYQQQPGGG [HCK_HUMAN_522]
inactive: SHP2 C-SH2 domain E139D 0.962 | [1] 0.487 | SHP2 N-SH2 domain L43F 0.554 | SHP2 N-SH2 domain T42A 0.663 | SHP2 N-SH2 domain T52S 0.576 | [2] 0.473
